Consider 52 compounds from ChEMBL document CHEMBL5308541, “MAIP: An Open-Source Tool to Enrich High-Throughput Screening Output and Identify Novel, Druglike Molecules with Antimalarial Activity” (ACS Med Chem Lett, 2023).

Structures are written as SMILES. About 540 (0.36%) of roughly 150,000 compounds showed an effect of 50% or more. The list shows a part of the results.

This assay deals with Plasmodium falciparum. The experiment in a line: Primary screen in NF54 nanoGlo assay, in single point, at 2uM, 72h; a lower Z score goes with more inhibition. It counts as functional, Erythrocyte. The settings on record: timepoint 72 hour.
In general, % Inhibition refers to the change of the read-out against control, counted positive when it falls. In the case of `CC(C)NS(=O)(=O)c1c[nH]c(C(=O)NC[C@H](C)N2CCN(c3ccccc3)CC2)c1`, the “% Inhibition” value is -6% and the Z score stood at 0.97.
As to `O=C1OCCN1c1cccc(Nc2nc3ccccc3o2)c1`, the “% Inhibition” value came to 13% and the Z score was -2.21.
For `CCc1oc(C(=O)N2CC(O)C(Cc3cc(C)no3)C2)cc1CN1CCCC1` (centres undefined) the same measures were 3% and -0.57.
For `Cc1cccc2oc(CNC(=O)c3ccc(N4CCN(C)CC4)cc3)nc12` the same measures were -7% and 1.
Consider `CCc1cc(N2CCC(NCc3nc[nH]c3C)CC2)nc(N2CCOCC2)n1`, for which the “% Inhibition” value is reported as -1% and the Z score came out at 0.3.
For `COc1ccc([C@@H](NC(=O)Nc2cccc(-n3ccnn3)c2)C2CC2)cn1` the same measures were -10% and 2.07.
On to `Clc1ccc2cnc(-c3ccccc3OC[C@H]3CCOC3)n2c1`, for which the “% Inhibition” value came to 4% and the Z score is reported as -0.61.
Taken in the same sequence, the figures for `CCc1cc(N2CCC(NC[C@@H]3C[C@H](F)CN3)CC2)nc(N2CCCC2)n1` were 1% and -0.12.
Taken in the same sequence, the figures for `COc1ccc([C@H](CNc2cc(C(F)(F)F)nc3ccccc23)N2CCCC2)cc1` were -4% and 0.63.
Regarding `Cc1cc(-c2ccc(C(=O)N3CCN([C@H]4CCNC4)CC3)cc2)cnc1N`, the “% Inhibition” value is -13% and the Z score came to 2.01.
For `COc1ccc(-c2nc(CC(=O)N[C@H]3CCCc4c3[nH]c3ccccc43)cs2)cc1OC` the same measures were 3% and -0.56.
For `Cc1nc(C)c(C(=O)NCCNc2ccc(Nc3ccncc3)nn2)s1` the same measures were 3% and -0.54.
For `Cn1nccc1CN1C[C@@H](F)C[C@H]1CNc1nc2ccccc2[nH]1` the same measures were -4% and 0.62.
In the case of `CCn1cc(-c2cccc(C(=O)N[C@@H](C)CN3CCc4ccccc4C3)c2)cn1`, the “% Inhibition” value came out at 53% and the Z score was -10.47.
For `CN1CC(=O)N2C[C@@H](NC(=O)c3cccc(-c4ccc(N)nc4)c3)C[C@H]2C1=O` the same measures were -16% and 2.42.
Taken in the same sequence, the figures for `NC1CCCC2CN(c3ncnc4[nH]ccc34)CC12` (centres undefined) were -9% and 1.83.
For `CN(C[C@H]1CCOC1)c1ncccc1S(=O)(=O)NCC1CC1` the same measures were -5% and 0.8.
Take `CCn1ccc2ccc(-c3c(-c4ccccc4)ncn3C[C@H](O)COC)cc21`: the “% Inhibition” value was -3% and the Z score was 0.58.
Taken in the same sequence, the figures for `CCN1CCC[C@@H]1C/N=c1/c(N2CCN(C)CC2)c(O)c1=O` were 5% and -1.05.
Taken in the same sequence, the figures for `CN(C)Cc1ccccc1NC(=O)c1cccc2c(=O)c3ccccc3[nH]c12` were -2% and 0.38.
On to `c1cnc2[nH]cc(CCN3CCNCC3)c2c1`, for which the “% Inhibition” value is on record as -4% and the Z score turned out to be 0.76.
For `CC1CCC(C(N)=O)CN1C(=O)COc1ccc(Cl)c2cccnc12` (centres undefined) the same measures were 0% and 0.
Taken in the same sequence, the figures for `Cc1cc(N(C)C)nc(NCCNS(=O)(=O)c2ccc(OC(F)(F)F)cc2)n1` were 14% and -2.05.
`CCN(CC)c1ccc(CNC(=O)c2cccc(Nc3ccc(-c4ccccc4)nn3)c2)cc1`: the “% Inhibition” value is on record as -18% and the Z score turned out to be 3.07.
For `O=C(c1cccc(-c2ccc(-c3cnco3)s2)c1)N1CCCNCC1` the same measures were 1% and -0.13.
Taken in the same sequence, the figures for `Cc1ccccc1CN1CCCN(C(=O)CN2CCC3C(CCCN3C)C2)CC1` (centres undefined) were 7% and -1.47.
Turning to `Nc1ccc(-c2nc3c(Cl)c(N)c(Cl)cc3[nH]2)cc1Cl`, the “% Inhibition” value is reported as -1% and the Z score was 0.16.
As for `Cc1ccc(C)c(-c2cc3nncn3c(N)n2)c1`, the “% Inhibition” value is 0% and the Z score was -0.05.
With `CN1CCc2ccc(S(=O)(=O)Nc3cccc([C@@]4(C)NC(=O)NC4=O)c3)cc21`, the “% Inhibition” value is on record as -9% and the Z score was determined as 1.65.
Taken in the same sequence, the figures for `O=C(CNc1cccc(Br)c1)Nc1ccccc1Oc1ccccc1` were -10% and 1.81.
Taken in the same sequence, the figures for `CN(Cc1cccc2ncccc12)C(=O)c1cnc(Nc2ccccc2)nc1` were -11% and 2.13.
For the compound `C[C@@H](CS(C)(=O)=O)N(C)C(=O)c1cc(C(F)(F)F)n(C)n1`, the “% Inhibition” value is listed as 7% and the Z score is recorded as -1.41.
Taken in the same sequence, the figures for `COc1ccc(CCN2CCC(CN(C)Cc3cnc(N4CCOCC4)s3)CC2)cc1` were 1% and -0.16.
Regarding `Cc1nc2ccc(C(=O)NCc3cc4n(n3)CCN(CC(C)C)C4)cc2o1`, the “% Inhibition” value is given as -5% and the Z score was 0.71.
In the case of `C[C@H]1CCCCN1C1CN(c2ncc(F)c(N3CCOCC3)n2)C1`, the “% Inhibition” value is listed as -12% and the Z score is reported as 2.15.
Taken in the same sequence, the figures for `CN1CCC(N2CC[C@H](N(C)C(=O)c3ccc4[nH]c(C(F)F)nc4c3)C2)CC1` were -10% and 1.56.
For `CNc1nc(C)cc(N[C@@H]2COc3ccccc3C2)n1` the same measures were 44% and -7.66.
For `Cc1cc(=O)[nH]c(-n2nc(C)cc2NC(=O)C(=O)N2CCC[C@H](C)C2)n1`, the “% Inhibition” value is recorded as 4% and the Z score is recorded as -0.54.
Regarding `CCN1CCC2CCC(C1)N2C(=O)NCc1cccc2cccnc12` (centres undefined), the “% Inhibition” value is recorded as -1% and the Z score is on record as 0.18.
Taken in the same sequence, the figures for `Cc1cc(N2CCC(NC(=O)Nc3cc(-c4ccccc4)on3)CC2)nc(C)n1` were 7% and -1.52.
Taken in the same sequence, the figures for `Cc1cccc([C@@H](O)CNCc2ccc(N(C)C(C)C)nc2)c1` were -7% and 1.22.
For `Cn1ncc2ccc(CNc3nccc(N4CCOCC4)n3)cc21` the same measures were 9% and -1.38.
Regarding `c1cncc(-c2nc(CCNC3CCN(Cc4ccco4)CC3)cs2)c1`, the “% Inhibition” value was determined as 10% and the Z score is -1.8.
For `CN1CC[C@H](CNc2nccc3cc(C(F)(F)F)ccc23)CC1=O` the same measures were -8% and 1.28.
For `COc1cc(C)nc(N2CCN(CC(=O)NC3CCN(C(C)C)CC3)CC2)n1` the same measures were 0% and 0.07.
For the compound `c1coc(CN2CCC(N3CCC[C@H](c4nc5ccccc5o4)C3)CC2)c1`, the “% Inhibition” value is given as -7% and the Z score is 1.14.
For `CNc1ccc(Nc2ncc(Cl)cn2)cn1` the same measures were -13% and 2.77.
Regarding `CC(C)(C)OC(=O)N1CCCC(C(=O)NC2CCCN(c3ncnc4sccc34)C2)C1` (centres undefined), the “% Inhibition” value is on record as -1% and the Z score amounted to 0.22.
`C[C@H]1CN(c2cccc(F)c2)CCN1c1ccc(C(=O)O)nn1`: the “% Inhibition” value worked out at 10% and the Z score is listed as -2.22.
Taken in the same sequence, the figures for `Cc1nc(-c2cccc(NC(=O)C(=O)N3Cc4ccccc4C3)c2)n[nH]1` were 2% and -0.37.
Taken in the same sequence, the figures for `c1ccc(-c2csc3nc(C4CC4)nc(NCc4ccnc(N5CCOCC5)c4)c23)cc1` were 7% and -1.59.
Taken in the same sequence, the figures for `c1cc(CN2CCOCC2)cc(-c2cnc3[nH]cnc3c2)c1` were 0% and -0.01.
